# Assay results from article PMC5515408.
# Some of the results follow. At the low end of the ranking the order means little.
# Biological target: MAX:MAX (p21) (UniProt P61244-2)
# Test: protein-binding microarray (anti-MAX antibody)
# Conditions: PBM: 15 mM Tris-HCl pH 7.5, 100 mM KCl, 0.075% NP40, 7.5 mM beta-mercaptoethanol, 375 ng/ul BSA, 8 ng/ul poly(dA-dT):(dA-dT), 550 ng complex, 60 min, room …; high values mean tight binding; double strand, one strand shown; sequences stand for … in CCGGC…TTAATAGCTAAGATTACTATATCGACG
row,Sequence,binding signal (log2 normalized fluorescence)
1,TGACGGCCAGTA,-0.778
2,TGACTTTTCGTA,-1.18
3,TGATTGAACGTA,-0.835
4,TGAGACGTCTTA,-0.793
5,TGAGGGATTGTA,-0.676
6,TGATTGGATGTA,-0.659
7,TGACGATAGGTA,-0.631
8,CGACACGCGGTA,2.86
9,TGAGCCTGCGTA,-0.0594
10,TGATTAAGAGTA,-0.997
11,TGAGACTACGTA,-0.643
12,TGACTCATCGTA,-0.191
13,TGATGAACCGTA,-0.499
14,TGACCCCGTGTA,2.72
15,TGATTTTCAGTA,-1.29
16,TGATCCACAGTA,-0.304
17,TGACGGGCTGTA,-0.169
18,TGAAGGAGCGTA,-0.583
19,TGAAGGGGAGTA,-0.038
20,TGAAAGGCGGTA,-0.124
21,TGACTGGCAGTA,0.00633
22,TGAATCTAAGTA,-1.07
23,TGAAACGAAGTA,-0.434

row,Sequence,binding signal (log2 normalized fluorescence)
1,TGACCGCGAGTA,1.06
2,TGACTCTTCGTA,-0.649
3,TGAGTCAGAGTA,-0.392
4,TGACCTCACGTA,0.812
5,TGAGGCGTAGTA,-0.65
6,AGACGCGTGGTA,3.26
7,TGATGCGGGGTA,0.595
8,TGATTATCAGTA,-0.45
9,TGACCACAGGTA,0.632
10,TGAGGGTACGTA,-0.549
11,TGAAGGAAGGTA,-0.568
12,TGAACGTTGGTA,0.152
13,TGAAGATCCGTA,-0.871
14,TGATACGCAGTA,-0.832
15,TGAGTGTCAGTA,-0.0924
16,TGAAAATCAGTA,-0.993
17,TGACGACCTGTA,-0.051
18,TGACCATTAGTA,-0.271
19,TGAGACCAGGTA,-0.704
20,AAACACGTAGTA,2.6
21,GTACCCGTGGTA,2.98
22,TGACATGTGGTA,2.89
23,TGAGCTCAAGTA,-0.665

row,Sequence,binding signal (log2 normalized fluorescence)
1,TGAGTTCCAGTA,-1.19
2,TGACTCAGTGTA,-0.523
3,TGAATGTACGTA,0.22
4,TGATTAGCCGTA,-1.32
5,TGACAAATTGTA,-0.694
6,TGAGATTATGTA,-0.948
7,AGTCACGTGGTA,3.18
8,TGACTCATGGTA,2.31
9,TGAAAGGAGGTA,-0.166
10,TGAATCCCAGTA,-0.681
11,TGAGCCTACGTA,-1.06
12,TGATTGTGTGTA,0.16
13,TGAAACGTGCTA,2.99
14,TGACCGTCGGTA,-0.357
15,TGACCTAATGTA,-0.229
16,TGAACACCGGTA,0.472
17,TGATATTAGGTA,-1.08
18,TGAGACTAGGTA,-1.05
19,TGAGCAAAAGTA,-1.03
20,TGAGTTGACGTA,-0.355
21,TGACTAAAGGTA,-0.935
22,TGAATTGAAGTA,-0.794
23,TGATTACTCGTA,-0.895

row,Sequence,binding signal (log2 normalized fluorescence)
1,TGACAGCGTGTA,2.9
2,TGAGTTAGGGTA,-0.799
3,TGAGTATCCGTA,-1.25
4,TGAACCAAGGTA,-0.369
5,TGAGGGTAGGTA,-0.702
6,TGAGGCGCGGTA,0.391
7,TGAATCGCTGTA,-0.618
8,TGAACTCGGGTA,-0.618
9,TGACACTTGGTT,0.395
10,TGAACTACCGTA,-0.334
11,TGAATCCGGGTA,-1.16
12,TGATGCGGTGTA,0.000801
13,TGATAGGGCGTA,-1.06
14,TGACCGCATGTA,3.27
15,TGAAACCCGGTA,-0.543
16,TGACGATCAGTA,-0.426
17,TGATATCTAGTA,-1.05
18,TGAGACAAGGTA,-0.681
19,TGAAAACAGGTA,-0.534
20,TGATTTCGCGTA,-0.735
21,TGAGATTGAGTA,-1.04
22,TGACTTCATGTA,0.0412
23,TGACCTTGTGTA,1.29

row,Sequence,binding signal (log2 normalized fluorescence)
1,TGCGCCGTGGTA,1.16
2,TGAAGTCTAGTA,-1.27
3,TGAGATAGAGTA,-1.16
4,TGACTTGCAGTA,-0.18
5,TGACCTGCTGTA,0.214
6,TGATATCTCGTA,-0.983
7,TGAATATGCGTA,-0.0985
8,TGAACCTTAGTA,-0.553
9,TCTCTGAATGAT,-0.7
10,TGAGAATCCGTA,-1.3
11,TGATCCTAGGTA,-0.991
12,TGAACTTTCGTA,-0.635
13,TGACGTAGGGTA,-0.61
14,TGAGTGTCGGTA,-0.348
15,TGCTCCGTGGTA,0.561
16,TGATCATAAGTA,0.184
17,TGACAAGTGGTC,0.772
18,ATTTACAGGCTA,0.204
19,TGATTACCGGTA,-0.948
20,TGATTCGGCGTA,-1.09
21,TGAAATGTCGTA,-0.485
22,TGAACGTGCGTA,2.46
